# Where a chain is given by its changes, count along the chain named. The list shows a part of the results.
# B1: GGCCUUU (DNA:RNA)
# RNA: GGGAGACCGGAAUUCAGAUUGUCCGGCCUUUUUAAAUCCCGUCGUAGCCACCA
# DNA 1: CAATCTGAATTCCGGTCTCCC
# DNA 2: TGGTGGCTACGACGGGATT
# B2: UUUGCUG (DNA:RNA)
# RNA: B1 RNA with G25U, G26U, C27U, C28G, U29C, U31G
# DNA 1: CAATCTGAATTCCGGTCTCCC
# DNA 2: TGGTGGCTACGACGGGATT
# B3: GUCCACU (DNA:RNA)
# RNA: B1 RNA with G26U, U29A, U30C
# DNA 1: CAATCTGAATTCCGGTCTCCC
# DNA 2: TGGTGGCTACGACGGGATT
# B4: GUAGCCG (DNA:RNA)
# RNA: B1 RNA with G26U, C27A, C28G, U29C, U30C, U31G
# DNA 1: CAATCTGAATTCCGGTCTCCC
# DNA 2: TGGTGGCTACGACGGGATT
# B5: AGGCGAU (DNA:RNA)
# RNA: B1 RNA with G25A, C27G, U29G, U30A
# DNA 1: CAATCTGAATTCCGGTCTCCC
# DNA 2: TGGTGGCTACGACGGGATT
# B6: UCCAGCU (DNA:RNA)
# RNA: B1 RNA with G25U, G26C, C28A, U29G, U30C
# DNA 1: CAATCTGAATTCCGGTCTCCC
# DNA 2: TGGTGGCTACGACGGGATT
# B7: ACCUUCU (DNA:RNA)
# RNA: B1 RNA with G25A, G26C, C28U, U30C
# DNA 1: CAATCTGAATTCCGGTCTCCC
# DNA 2: TGGTGGCTACGACGGGATT
# B8: UGCGGGU (DNA:RNA)
# RNA: B1 RNA with G25U, C28G, U29G, U30G
# DNA 1: CAATCTGAATTCCGGTCTCCC
# DNA 2: TGGTGGCTACGACGGGATT
# B9: CAAUAAU (DNA:RNA)
# RNA: B1 RNA with G25C, G26A, C27A, C28U, U29A, U30A
# DNA 1: CAATCTGAATTCCGGTCTCCC
# DNA 2: TGGTGGCTACGACGGGATT
# B10: CGCGUCG (DNA:RNA)
# RNA: B1 RNA with G25C, C28G, U30C, U31G
# DNA 1: CAATCTGAATTCCGGTCTCCC
# DNA 2: TGGTGGCTACGACGGGATT
# B11: GGCAGAC (DNA:RNA)
# RNA: B1 RNA with C28A, U29G, U30A, U31C
# DNA 1: CAATCTGAATTCCGGTCTCCC
# DNA 2: TGGTGGCTACGACGGGATT
# B12: ACACGUC (DNA:RNA)
# RNA: B1 RNA with G25A, G26C, C27A, U29G, U31C
# DNA 1: CAATCTGAATTCCGGTCTCCC
# DNA 2: TGGTGGCTACGACGGGATT
# B13: CGAGGAC (DNA:RNA)
# RNA: B1 RNA with G25C, C27A, C28G, U29G, U30A, U31C
# DNA 1: CAATCTGAATTCCGGTCTCCC
# DNA 2: TGGTGGCTACGACGGGATT
# B14: GGGACCU (DNA:RNA)
# RNA: B1 RNA with C27G, C28A, U29C, U30C
# DNA 1: CAATCTGAATTCCGGTCTCCC
# DNA 2: TGGTGGCTACGACGGGATT
# B15: AGUCAUC (DNA:RNA)
# RNA: B1 RNA with G25A, C27U, U29A, U31C
# DNA 1: CAATCTGAATTCCGGTCTCCC
# DNA 2: TGGTGGCTACGACGGGATT
# B16: CUCGUCA (DNA:RNA)
# RNA: B1 RNA with G25C, G26U, C28G, U30C, U31A
# DNA 1: CAATCTGAATTCCGGTCTCCC
# DNA 2: TGGTGGCTACGACGGGATT
# B17: AAUGCCG (DNA:RNA)
# RNA: GGGAGACCGGAAUUCAGAUUGUCCAAUGCCGUUAAAUCCCGUCGUAGCCACCA
# DNA 1: CAATCTGAATTCCGGTCTCCC
# DNA 2: TGGTGGCTACGACGGGATT
# B18: CCCAUAU (DNA:RNA)
# RNA: B1 RNA with G25C, G26C, C28A, U30A
# DNA 1: CAATCTGAATTCCGGTCTCCC
# DNA 2: TGGTGGCTACGACGGGATT
# B19: GCUUAGG (DNA:RNA)
# RNA: B17 RNA with A25G, A26C, G28U, C29A, C30G
# DNA 1: CAATCTGAATTCCGGTCTCCC
# DNA 2: TGGTGGCTACGACGGGATT
# B20: CAUCGUG (DNA:RNA)
# RNA: B17 RNA with A25C, G28C, C29G, C30U
# DNA 1: CAATCTGAATTCCGGTCTCCC
# DNA 2: TGGTGGCTACGACGGGATT
# B21: GCUUGCC (DNA:RNA)
# RNA: B17 RNA with A25G, A26C, G28U, C29G, G31C
# DNA 1: CAATCTGAATTCCGGTCTCCC
# DNA 2: TGGTGGCTACGACGGGATT
# B22: CUGUACG (DNA:RNA)
# RNA: B17 RNA with A25C, A26U, U27G, G28U, C29A
# DNA 1: CAATCTGAATTCCGGTCTCCC
# DNA 2: TGGTGGCTACGACGGGATT
# B23: AUAACUC (DNA:RNA)
# RNA: B17 RNA with A26U, U27A, G28A, C30U, G31C
# DNA 1: CAATCTGAATTCCGGTCTCCC
# DNA 2: TGGTGGCTACGACGGGATT
# B24: UGUGUCU (DNA:RNA)
# RNA: B17 RNA with A25U, A26G, C29U, G31U
# DNA 1: CAATCTGAATTCCGGTCTCCC
# DNA 2: TGGTGGCTACGACGGGATT
# B25: GCGUGUC (DNA:RNA)
# RNA: B1 RNA with G26C, C27G, C28U, U29G, U31C
# DNA 1: CAATCTGAATTCCGGTCTCCC
# DNA 2: TGGTGGCTACGACGGGATT
# B26: UUAGCGC (DNA:RNA)
# RNA: B17 RNA with A25U, A26U, U27A, C30G, G31C
# DNA 1: CAATCTGAATTCCGGTCTCCC
# DNA 2: TGGTGGCTACGACGGGATT
# B27: ACCUACG (DNA:RNA)
# RNA: B17 RNA with A26C, U27C, G28U, C29A
# DNA 1: CAATCTGAATTCCGGTCTCCC
# DNA 2: TGGTGGCTACGACGGGATT
# B28: CAGGACU (DNA:RNA)
# RNA: B17 RNA with A25C, U27G, C29A, G31U
# DNA 1: CAATCTGAATTCCGGTCTCCC
# DNA 2: TGGTGGCTACGACGGGATT
# B29: GGUUUUA (DNA:RNA)
# RNA: B1 RNA with C27U, C28U, U31A
# DNA 1: CAATCTGAATTCCGGTCTCCC
# DNA 2: TGGTGGCTACGACGGGATT
# B30: AUGUCUC (DNA:RNA)
# RNA: B17 RNA with A26U, U27G, G28U, C30U, G31C
# DNA 1: CAATCTGAATTCCGGTCTCCC
# DNA 2: TGGTGGCTACGACGGGATT
# B31: GAUCAAA (DNA:RNA)
# RNA: B17 RNA with A25G, G28C, C29A, C30A, G31A
# DNA 1: CAATCTGAATTCCGGTCTCCC
# DNA 2: TGGTGGCTACGACGGGATT
# Target: T1, RBFOX1 RRM RbFoxmut (Fox-RRM*) (Homo sapiens, UniProt Q9NWB1 109-208, R118D;E147R;N151S;E152T)
# T1 sequence: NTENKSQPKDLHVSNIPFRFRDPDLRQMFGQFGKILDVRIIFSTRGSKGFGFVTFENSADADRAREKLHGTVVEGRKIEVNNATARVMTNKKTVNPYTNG
# Assay: EMSA; HiTS-Eq, 1 nM pool, 10 min; buffer printed only for the single-RNA assays: 10 mM Tris pH 7.5, 150 mM NaCl, 3.4 mM EDTA, 0.001% NP-40, 30 C
# Details: tags: His6 N-terminal (pET28a); label: 5' 32P
# Method in brief: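 A pool of RNA with 7 randomized nucleotides, 5′-radiolabelled and with DNA-annealed flanks, was equilibrated at 1 nM for 10 min in 50 µL with purified RbFox RRM, wild type or mutant, across increasing protein concentrations. Free RNA was separated by 8% native PAGE, excised, reverse-transcribed, barcoded by PCR and sequenced. Relative association constants were obtained from read-count changes of each RNA species versus the control reaction and normalised to the cognate motif.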
row,Binder,binding signal
1,B1,0.057 KA relative to UGCAUGU
2,B2,0.133 KA relative to UGCAUGU
3,B3,0.0788 KA relative to UGCAUGU
4,B4,0.116 KA relative to UGCAUGU
5,B5,0.0529 KA relative to UGCAUGU
6,B6,0.0685 KA relative to UGCAUGU
7,B7,0.0463 KA relative to UGCAUGU
8,B8,0.0971 KA relative to UGCAUGU
9,B9,0.0736 KA relative to UGCAUGU
10,B10,0.101 KA relative to UGCAUGU
11,B11,0.0737 KA relative to UGCAUGU
12,B12,0.0724 KA relative to UGCAUGU
13,B13,0.0787 KA relative to UGCAUGU
14,B14,0.0743 KA relative to UGCAUGU
15,B15,0.0996 KA relative to UGCAUGU
16,B16,0.113 KA relative to UGCAUGU

row,Binder,binding signal
1,B17,0.0994 KA relative to UGCAUGU
2,B18,0.0892 KA relative to UGCAUGU
3,B19,0.118 KA relative to UGCAUGU
4,B20,0.139 KA relative to UGCAUGU
5,B21,0.239 KA relative to UGCAUGU
6,B22,0.287 KA relative to UGCAUGU
7,B23,0.0826 KA relative to UGCAUGU
8,B24,0.131 KA relative to UGCAUGU
9,B25,0.203 KA relative to UGCAUGU
10,B26,0.106 KA relative to UGCAUGU
11,B27,0.132 KA relative to UGCAUGU
12,B28,0.0481 KA relative to UGCAUGU
13,B29,0.089 KA relative to UGCAUGU
14,B30,0.105 KA relative to UGCAUGU
15,B31,0.0616 KA relative to UGCAUGU
